Data taken from the supplement of paper PMC8728848.
This is one part of the list.

Legend:
Test in all cases: glycan array binding signal (z-score within array); higher = stronger binding
Conditions in all cases: glycan notation: IUPAC condensed, linker removed
[1] = biological target: Fuc(a1-3)[Gal(b1-4)]GlcNAc(b1-3)Gal(b1-4)[Fuc(a1-3)]GlcNAc(b1-3)Gal(b1-4)[Fuc(a1-3)]GlcNAc
How it was run: (§1)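 Negative Z-scores can be read as non-binding. The Z-score is calculated within each array and then averaged across arrays of one protein sequence at different concentrations or buffers and across linkers. Arrays, 3228 in all, were curated from the Consortium for Functional Glycomics database and kept only where the protein sequence was available.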

[2] = biological target: Fuc(a1-3)[Gal(b1-4)]GlcNAc(b1-3)GalNAc
How it was run: as §1

[3] = biological target: Fuc(a1-3)[Gal(b1-4)]GlcNAc(b1-6)GalNAc
How it was run: as §1

[4] = biological target: Fuc(a1-3)[Gal(b1-4)]GlcNAc(b1-6)[Gal(b1-3)GlcNAc(b1-3)]Gal(b1-4)Glc
How it was run: as §1

[5] = biological target: Fuc(a1-3)[Gal(b1-4)]GlcNAc6S
How it was run: as §1

[6] = biological target: Fuc(a1-3)[Gal3S(b1-4)]Glc
How it was run: as §1

[7] = biological target: Fuc(a1-3)[Gal3S(b1-4)]GlcNAc
How it was run: as §1

[8] = biological target: Fuc(a1-3)[Gal3S(b1-4)]GlcNAc6S
How it was run: as §1

[9] = biological target: Fuc(a1-3)[GalNAc(b1-4)]GlcNAc
How it was run: as §1

[10] = biological target: Fuc(a1-3)[GalNAc(b1-4)]GlcNAc6S
How it was run: as §1

[11] = biological target: Fuc(a1-4)GlcNAc
How it was run: as §1

[12] = biological target: Fuc(b1-3)GlcNAc
How it was run: as §1

[13] = biological target: Gal(a1-2)Gal
How it was run: as §1

[14] = biological target: Gal(a1-3)Gal
How it was run: as §1

[15] = biological target: Gal(a1-3)Gal(b1-3)GlcNAc
How it was run: as §1

[16] = biological target: Gal(a1-3)Gal(b1-3)GlcNAc(b1-2)Man
How it was run: as §1

[17] = biological target: Gal(a1-3)Gal(b1-3)GlcNAc(b1-2)Man(a1-3)[Gal(a1-3)Gal(b1-3)GlcNAc(b1-2)Man(a1-6)]Man(b1-4)GlcNAc(b1-4)GlcNAc
How it was run: as §1

[18] = biological target: Gal(a1-3)Gal(b1-3)GlcNAc(b1-3)GalNAc
How it was run: as §1

[19] = biological target: Gal(a1-3)Gal(b1-3)GlcNAc(b1-6)GalNAc
How it was run: as §1

[20] = biological target: Gal(a1-3)Gal(b1-3)[Fuc(a1-4)]GlcNAc(b1-2)Man(a1-3)[Gal(a1-3)Gal(b1-3)[Fuc(a1-4)]GlcNAc(b1-2)Man(a1-6)]Man(b1-4)GlcNAc(b1-4)GlcNAc
How it was run: as §1

[21] = biological target: Gal(a1-3)Gal(b1-4)Glc
How it was run: as §1

[22] = biological target: Gal(a1-3)Gal(b1-4)GlcNAc
How it was run: as §1

[23] = biological target: Gal(a1-3)Gal(b1-4)GlcNAc(b1-2)Man
How it was run: as §1

[24] = biological target: Gal(a1-3)Gal(b1-4)GlcNAc(b1-2)Man(a1-3)[Gal(a1-3)Gal(b1-4)GlcNAc(b1-2)Man(a1-6)]Man(b1-4)GlcNAc(b1-4)GlcNAc
How it was run: as §1

[25] = biological target: Gal(a1-3)Gal(b1-4)GlcNAc(b1-3)GalNAc
How it was run: as §1

[26] = biological target: Gal(a1-3)Gal(b1-4)GlcNAc(b1-6)GalNAc
How it was run: as §1

[27] = biological target: Gal(a1-3)Gal(b1-4)[Fuc(a1-3)]GlcNAc
How it was run: as §1

[28] = biological target: Gal(a1-3)Gal(b1-4)[Fuc(a1-3)]GlcNAc(b1-2)Man(a1-3)[Gal(a1-3)Gal(b1-4)[Fuc(a1-3)]GlcNAc(b1-2)Man(a1-6)]Man(b1-4)GlcNAc(b1-4)GlcNAc
How it was run: as §1

[29] = biological target: Gal(a1-3)GalNAc
How it was run: as §1

[30] = biological target: Gal(a1-3)[Gal(a1-4)]Gal(b1-4)GlcNAc
How it was run: as §1

[31] = biological target: Gal(a1-4)Gal(b1-3)GlcNAc(b1-2)Man(a1-3)[Gal(a1-4)Gal(b1-3)GlcNAc(b1-2)Man(a1-6)]Man(b1-4)GlcNAc(b1-4)GlcNAc
How it was run: as §1

[32] = biological target: Gal(a1-4)Gal(b1-4)Glc
How it was run: as §1

[33] = biological target: Gal(a1-4)Gal(b1-4)GlcNAc
How it was run: as §1

[34] = biological target: Gal(a1-4)Gal(b1-4)GlcNAc(b1-2)Man(a1-3)[Gal(a1-4)Gal(b1-4)GlcNAc(b1-2)Man(a1-6)]Man(b1-4)GlcNAc(b1-4)GlcNAc
How it was run: as §1

[35] = biological target: Gal(a1-4)Gal(b1-4)GlcNAc(b1-3)Gal(b1-4)Glc
How it was run: as §1

[36] = biological target: Gal(a1-4)GlcNAc
How it was run: as §1

[37] = biological target: Gal(a1-6)Glc
How it was run: as §1

[38] = biological target: Gal(b1-2)Gal
How it was run: as §1

B1: CaSRK1 (Capsicum annuum) (protein)
chain: MALCKIFPFAFILLSCSCYLISGQRFDYPTANLSTTWINSVSAPHSIDYTDGSRIRAILLRGTFGPRYACGFYCNGNCESYLFAIFIVQTNSASQITSPAIGFPQVVWSANRNNPVKINSTLQLTAEGDLVLRDADGTLAWSTNTAGKSVAGLSLTDEGNLALFDSKNATVWQSFDHPTDALVPGQKLVPGMKLTASVSRTNWTAGGLFALSAIDNGLVAFVESNPPQKYFEASVGGSNTSGGSNYVKYLNGSLTLFTHSADTTELILISITPASSAQYMKLESNGHLKVYEWTSRGWREVDDLLTGFRGECNYPTVCGRYGICTMGQCSCPTSSSSRTYFRPIDVRRPSLGCSEVTKLTCQNTKKHSPLEVEDVDYFAFKAGISDTDLNTCKRACLEKCSCKAAFFRSGLNSSRTRGDCYLPTEIFSIMNNEKDRTRYDSVAFIKVQV
- glycan array binding signal (z-score) [1]: -0.551
- glycan array binding signal (z-score) [2]: 0.176
- glycan array binding signal (z-score) [3]: -0.001
- glycan array binding signal (z-score) [4]: -0.316
- glycan array binding signal (z-score) [5]: 0.606
- glycan array binding signal (z-score) [6]: -0.14
- glycan array binding signal (z-score) [7]: 0.022
- glycan array binding signal (z-score) [8]: -0.253
- glycan array binding signal (z-score) [9]: -0.195
- glycan array binding signal (z-score) [10]: -0.452
- glycan array binding signal (z-score) [11]: -0.037
- glycan array binding signal (z-score) [12]: -0.15
- glycan array binding signal (z-score) [13]: -0.295
- glycan array binding signal (z-score) [14]: -0.473
- glycan array binding signal (z-score) [15]: 3.11
- glycan array binding signal (z-score) [16]: -0.499
- glycan array binding signal (z-score) [17]: -0.213
- glycan array binding signal (z-score) [18]: -0.147
- glycan array binding signal (z-score) [19]: -0.504
- glycan array binding signal (z-score) [20]: -0.357
- glycan array binding signal (z-score) [21]: -0.473
- glycan array binding signal (z-score) [22]: -0.454
- glycan array binding signal (z-score) [23]: -0.278
- glycan array binding signal (z-score) [24]: -0.375
- glycan array binding signal (z-score) [25]: -0.081
- glycan array binding signal (z-score) [26]: -0.482
- glycan array binding signal (z-score) [27]: -0.295
- glycan array binding signal (z-score) [28]: 1.04
- glycan array binding signal (z-score) [29]: -0.479
- glycan array binding signal (z-score) [30]: -0.496
- glycan array binding signal (z-score) [31]: 0.412
- glycan array binding signal (z-score) [32]: -0.139
- glycan array binding signal (z-score) [33]: -0.24
- glycan array binding signal (z-score) [34]: 0.156
- glycan array binding signal (z-score) [35]: -0.419
- glycan array binding signal (z-score) [36]: -0.197
- glycan array binding signal (z-score) [37]: 0.287
- glycan array binding signal (z-score) [38]: 1.16
